Data published in patent US20250326845A1 (LILING BIOPHARMACEUTICALS, published 2025).
Where a chain is given by its changes, count along the chain named.

B1: huVHH3-3-Fc (Fc fusion)
chain: EVQLVESGGGLVQPGGSLRLSCAASGRTSSMYAMGWFRQAPGNEREFVAGIGWENNTPYYARSVEGRFTISRDNVKNTVFLQMNRLRAEDTAVYYCAAQIGISGTLGDYWGQGTQVTVSS[letters of human IgG4 Fc with S228P (EU numbers) left out]
B2: huVHH3-5-Fc (Fc fusion)
chain: B1 chain with V2L, P14A, R87K, A88P
B3: huVHH3-1-Fc (Fc fusion)
chain: B1 chain with N43K, E44G, F80Y, R85S
B4: LL-VHH01-Fc (Fc fusion)
chain: B1 chain with E1Q, V2L, P14A, A40S, R87K, A88P, T91A, Y95F
notes: Alpaca VHH fused to hIgG4 Fc, expressed in HEK293 and purified on Protein A; also called PD-1 single domain antibody VHH-Fc fusion protein; PD-1 VHH-Fc fusion protein
B5: huVHH3-2-Fc (Fc fusion)
chain: B1 chain with F80Y, R85S
B6: huVHH3-6-Fc (Fc fusion)
chain: B1 chain with V2L, P14A, R87K, A88P, T91A, Y95F
B7: huVHH3-4-Fc (Fc fusion)
chain: B1 chain with R87K, A88P

Each binder was assayed against T1, human PD-1 protein (human, UniProt Q15116 fragment) (assay: binding ELISA activity, sample in pH 5.5 buffer at 40 C, 0 week).
T1 construct: Bought soluble protein; also called PD-1 antigen; human PD-1 antigen
In the case of B1, the “ELISA binding(%)” value is reported as 121%.
With B2 the “ELISA binding(%)” value was 93.9%.

What follows are binders tested against T1, human PD-1 protein (assay: binding ELISA activity, sample in human serum at 37 C, 4 weeks).
T1 sequence (Q15116 25-167 limits assumed): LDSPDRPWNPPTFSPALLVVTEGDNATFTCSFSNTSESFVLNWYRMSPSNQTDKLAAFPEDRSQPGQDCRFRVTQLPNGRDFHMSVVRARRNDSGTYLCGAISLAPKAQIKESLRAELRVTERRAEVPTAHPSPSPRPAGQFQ
B3 was tested, and the “ELISA binding(%)” value was 97.8%.
In the case of B1, the “ELISA binding(%)” value is reported as 102%.
With B2 the “ELISA binding(%)” value was 87.3%.

These binders were tested against T1, human PD-1 protein (assay: binding ELISA activity, sample in human serum at 37 C, 2 weeks).
In the case of B3, the “ELISA binding(%)” value is reported as 98.7%.
B1 was tested, and the “ELISA binding(%)” value was 92.2%.
For B2, the “ELISA binding(%)” value was 82.3%.

What follows are binders tested against T1, human PD-1 protein (assay: binding ELISA activity, sample in human serum at 37 C, 0 week).
With B1 the “ELISA binding(%)” value was 99%.
In the case of B2, the “ELISA binding(%)” value is reported as 82.4%.

These binders were tested against T1, human PD-1 protein (assay: binding ELISA activity, sample in pH 5.5 buffer at 40 C, 4 weeks).
B3 was tested, and the “ELISA binding(%)” value was 97.1%.
For B1, the “ELISA binding(%)” value was 92.9%.
In the case of B2, the “ELISA binding(%)” value is reported as 86.5%.

The binders below were run against T1, human PD-1 protein (assay: ELISA, human PD-1 protein coated).
Work on B4 yielded an EC50 of 0.0297 µg/mL.
With B3 the EC50 was 0.0293 µg/mL.
B5 gave an EC50 of 0.0405 µg/mL.
B1 gave an EC50 of 0.047 µg/mL.
With B6 the EC50 was 0.046 µg/mL.

Each binder was assayed against T1, human PD-1 protein (assay: binding ELISA activity, sample in pH 5.5 buffer at 40 C, 2 weeks).
In the case of B3, the “ELISA binding(%)” value is reported as 106%.
B1 was tested, and the “ELISA binding(%)” value was 103%.
In the case of B2, the “ELISA binding(%)” value is reported as 104%.

What follows are binders tested against T1, human PD-1 protein (assay: BLI (Octet RED 96e), antibody captured on Protein A probe, human PD-1 at 30 or 120 nM).
With B7 the Kd was 4.13 nM, the koff was 0.000308 s⁻¹ and the kon was 74500 M⁻¹ s⁻¹.
B4 gave a Kd of 2.53 nM, a koff of 0.000201 s⁻¹ and a kon of 79400 M⁻¹ s⁻¹.
B3 gave a Kd of 2.86 nM, a koff of 0.00024 s⁻¹ and a kon of 84000 M⁻¹ s⁻¹.
B5 was tested, and the Kd was 2.92 nM, the koff was 0.000231 s⁻¹ and the kon was 79100 M⁻¹ s⁻¹.
In the case of B1, the Kd is reported as 2.49 nM, the koff is reported as 0.000222 s⁻¹ and the kon is reported as 89100 M⁻¹ s⁻¹.
B2 gave a Kd of 2.66 nM, a koff of 0.000225 s⁻¹ and a kon of 84600 M⁻¹ s⁻¹.
Work on B6 yielded a Kd of 2.83 nM, a koff of 0.000267 s⁻¹ and a kon of 94200 M⁻¹ s⁻¹.
